Screen size: about 310,000 compounds; about 14,000 (4.5%) showed an effect of 50% or more. Effects have a minus sign here. The list shows a part of the results.
molecular target: human ether-à-go-go-related gene (hERG) potassium channel (human, UniProt Q12809); assay: primary screen, population patch clamp on CHO cells stably expressing hERG
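Also: peak tail current of the secondary pulse compared with the same well before compound.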

Chain of human ether-à-go-go-related gene (hERG) potassium channel (Q12809 whole entry, looked up): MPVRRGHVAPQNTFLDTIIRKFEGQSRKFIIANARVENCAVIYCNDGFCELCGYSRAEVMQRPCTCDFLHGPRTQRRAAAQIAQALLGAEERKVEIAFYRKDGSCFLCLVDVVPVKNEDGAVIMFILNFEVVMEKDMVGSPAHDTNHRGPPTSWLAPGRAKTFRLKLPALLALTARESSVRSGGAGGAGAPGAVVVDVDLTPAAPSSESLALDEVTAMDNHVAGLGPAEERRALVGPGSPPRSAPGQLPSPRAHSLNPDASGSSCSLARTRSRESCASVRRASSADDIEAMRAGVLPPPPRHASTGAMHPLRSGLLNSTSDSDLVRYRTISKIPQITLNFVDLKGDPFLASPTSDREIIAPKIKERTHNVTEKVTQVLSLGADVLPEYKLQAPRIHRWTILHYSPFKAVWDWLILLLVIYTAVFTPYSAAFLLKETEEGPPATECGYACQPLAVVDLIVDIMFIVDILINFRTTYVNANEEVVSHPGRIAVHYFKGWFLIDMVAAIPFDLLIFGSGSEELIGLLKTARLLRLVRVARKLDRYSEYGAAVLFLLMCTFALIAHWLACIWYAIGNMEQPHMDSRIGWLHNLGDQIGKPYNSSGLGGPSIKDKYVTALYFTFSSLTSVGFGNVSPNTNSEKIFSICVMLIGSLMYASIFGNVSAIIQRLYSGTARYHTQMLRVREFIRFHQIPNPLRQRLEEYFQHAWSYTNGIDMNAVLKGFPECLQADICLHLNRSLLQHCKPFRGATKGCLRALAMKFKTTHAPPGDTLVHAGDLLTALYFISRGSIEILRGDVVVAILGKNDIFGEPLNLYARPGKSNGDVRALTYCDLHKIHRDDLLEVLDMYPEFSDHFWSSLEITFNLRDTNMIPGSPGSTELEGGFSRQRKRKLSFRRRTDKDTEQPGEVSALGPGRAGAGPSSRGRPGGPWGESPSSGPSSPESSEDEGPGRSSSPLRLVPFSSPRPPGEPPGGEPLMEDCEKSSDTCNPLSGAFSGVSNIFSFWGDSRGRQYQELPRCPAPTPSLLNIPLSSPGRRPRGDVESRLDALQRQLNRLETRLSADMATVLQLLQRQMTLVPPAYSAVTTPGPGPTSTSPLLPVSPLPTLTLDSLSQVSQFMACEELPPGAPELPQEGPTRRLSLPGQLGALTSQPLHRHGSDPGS

Row | SMILES | hERG current change (%, negative = inhibition) at 10uM
1 | Cc1ccccc1N(C(=O)c1ccccn1)C(C(=O)NCc1ccccc1)c1ccncc1 (centres unmarked) | 9.38%
2 | CCc1ccc2[nH]c(=O)c(C(c3nnnn3Cc3ccccc3)N3CCOCC3)cc2c1 (centres unmarked) | -23.4%
3 | COc1ccc([N+](=O)[O-])cc1NC(=O)c1cccnc1 | -7.96%
4 | O=C(COC(=O)C1(c2ccc(F)cc2)CCCC1)NC1CC1 | 0.676%
5 | Cn1c(NC(=O)COc2ccccc2)cc(=O)n(C)c1=O | 4.97%
6 | Cc1c(C(=O)/C=C/N(C)C)nnn1-c1ccc(F)c(Cl)c1 | 2.73%
7 | O=C(CN1CCCCC1)N/N=C/c1cccc(C(F)(F)F)c1 | -38.9%
8 | CCN(C(=S)NCCOC)c1cccc2ccccc12 | 8.8%
9 | O=C(N/N=C/c1ccco1)C(O)c1ccccc1 (centres unmarked) | 9.77%
10 | S=C(NCCc1ccccc1)Nc1ccccc1N1CCOCC1 | 5.74%
11 | Fc1cccc(/C=N/n2c(C3CCCCC3)n[nH]c2=S)c1 | 13.3%
12 | CC1=C(C(=O)Nc2ccccc2)C(c2cccnc2)n2ncnc2N1 (centres unmarked) | 13.7%
13 | Cc1ccc(NC(=O)CCSc2nnnn2-c2ccc3c(c2)OCO3)cc1C | -16.3%
14 | CCc1nc2sc3c(O)cc(=O)[nH]c3c2cc1C | 12%
15 | CC1(C)CC(=O)C/C(=N/Nc2nc3ccccc3s2)C1 | 15.2%
16 | Cc1cc(C)c(NC(=O)CCn2nnc3ccccc32)c(C)c1 | 22%
17 | Cc1ccc(CN(c2ccc(C(=O)Nc3ccc4c(c3)OCO4)cc2)S(C)(=O)=O)cc1 | 10.6%
18 | O=C(CCN1C(=O)/C(=C/c2cccs2)SC1=S)NC1=NCCS1 | 12.2%
19 | COc1ccc(/C=C(\C#N)C(=O)OCCNC(=O)c2ccncc2)cc1 | 0.758%

Row | SMILES | hERG current change (%, negative = inhibition) at 10uM
20 | O=C(CCC1COc2ccccc2O1)Nc1ccccn1 (centres unmarked) | -6.45%
21 | Cc1ccc(C(=O)NCCc2nnc3ccc(SCC(=O)N4CCCCC4)nn23)cc1 | 4.02%
22 | COc1ccc(-c2ccnc(SCC(=O)N3CCN(c4ccccc4)CC3)n2)cc1 | 15.3%
23 | O=C(NC(=S)Nc1ccc(F)cc1)c1ccc2c(c1)OCCO2 | -1.46%
24 | COc1ccc(CCNC(=O)c2ccc(CN3CCC(Cc4ccccc4)CC3)cc2)cc1OC | -67.9%
25 | CCC1(CC)C(=O)N(C)C(=O)NC1=Nc1ccccc1 | 15.8%
26 | CC(Oc1ccc(Cl)cc1Cl)C(=O)NNC(=O)c1cccnc1 (centres unmarked) | -15.4%
27 | O=C(CN1CCN(S(=O)(=O)c2ccccc2)CC1)Nc1cccc(C(F)(F)F)c1 | -56.2%
28 | O=C(c1cc(S(=O)(=O)N2CCOCC2)c(Cl)cc1Cl)N1CCCCC1CO (centres unmarked) | 9.85%
29 | COc1ccc(S(=O)(=O)N2CCCN(S(=O)(=O)c3ccc(OC)cc3C)CC2)c(C)c1 | 7.74%
30 | Cc1ccc(CS(=O)(=O)Cc2ccc(C(=O)NCc3ccccn3)o2)cc1 | -5.95%
31 | COC(=O)C1=C(C)N=c2s/c(=C/c3cccs3)c(=O)n2C1c1ccc(F)cc1 (centres unmarked) | 0.786%
32 | COC(=O)c1ccc(N2CCC(C)CC2)c(N)c1 | 0.238%
33 | C/C(=N\N1CCCCCC1)c1c(O)n(C2CCCCC2)c(=O)[nH]c1=O | -9.93%
34 | CC(=O)Nc1ccccc1NC(=O)COc1cccc2ccccc12 | 18.9%
35 | COc1cc(C(=O)CSc2nnc(-c3ccc(O)cc3)n2CC2CCCO2)ccc1NC(C)=O (centres unmarked) | 5.16%
36 | Cc1nc2ccccc2c(=O)n1-c1ccc(F)c(NS(=O)(=O)c2ccccc2F)c1 | 19.2%
37 | c1ccc2[nH]c(NCc3ccc4c(c3)OCO4)nc2c1 | -4.7%
38 | CCSc1ccc([C@@H]2[C@H]3C(=O)N(CC)C(=O)[C@H]3[C@]3(C(=O)OC)CCCCN23)cc1.O=C(O)C(F)(F)F | -19.1%

Row | SMILES | hERG current change (%, negative = inhibition) at 10uM
39 | CC(c1nnc(SCC(=O)N2CCc3ccccc32)n1-c1ccc(Cl)cc1)N(C)C (centres unmarked) | -12.6%
40 | C=CCn1cc(C(=O)NCCCOC)c(=O)c2cc(S(=O)(=O)N(CC)CC)ccc21 | -30.5%
41 | CCc1cccc(C)c1NC(=O)CN(C)Cc1ccccc1F.O=C(O)C(=O)O | -23.8%
42 | COC(=O)c1ccc(S(=O)(=O)c2ccc([N+](=O)[O-])cc2)cc1 | -3.9%
43 | O=C(N=C1SC2CS(=O)(=O)CC2N1c1cc(Cl)ccc1Cl)C1CC1 (centres unmarked) | -4.65%
44 | Cc1nn2c(N)c(C#N)cnc2c1-c1ccccc1 | -5.95%
45 | Cn1nccc1C(=O)NCCN1C(=O)OC(C)(C)C1(C)O (centres unmarked) | -0.944%
46 | COc1ccc(C(=O)Nc2ccccc2C(N)=O)cc1 | -18.9%
47 | O=C(NC1CCN(S(=O)(=O)c2ccc(F)cc2)CC1)c1cccnc1 | -10.5%
48 | CC(C1CC2CCC1C2)N1CC(O)=C(c2nc3ccccc3[nH]2)C1=N (centres unmarked) | -17.9%
49 | Cc1ccc(C(=O)COC(=O)c2cc(=O)[nH]c3ccccc23)cc1 | 13.3%
50 | Cc1cccc(OCC(=O)OC(C)C(=O)Nc2ccc(S(=O)(=O)N3CCCCC3)cc2)c1 (centres unmarked) | 8.69%
51 | CN(C)c1nc2n(c(=O)n1)CCO2 | 20.3%
52 | COc1ccc(C(C(=O)NCc2ccccc2)N(C(=O)c2snc(C(N)=O)c2N)c2ccccc2OC)cc1OC (centres unmarked) | -24.9%
53 | Fc1ccc(-c2cc(-c3nnc4n3CCCCC4)c3ccccc3n2)cc1 | -63.5%
54 | CCCCN(CCCC)C(=O)c1cc(Cl)ccc1[N+](=O)[O-] | -1.4%
55 | CSc1ncc(Cl)c(C(=O)O)n1 | 15.8%
56 | Cc1cc(C)c(C)c(OCCCn2ccnc2)c1 | -5.23%

Source: article PMC4336329 (PLoS ONE, 2015)
